According to patent US20070117808A1, “Substituted Cycloalkylpyrrolones As Allosteric Modulators Of Glucokinase” (priority 2005, published 2007):
“And” between values parts separate entries of the source, which are not always exact repeats. Identical values can stand only once. At least one read-out could not be matched to a standard name with certainty.

Key:
[1] = target: T1, human liver Glucokinase (GK) (Homo sapiens, UniProt P35557); test: Glucokinase enzyme assay, liver GK; format: biochemical; conditions: percentage increase in GK activity above vehicle control, compound 50 μM, 12 mM glucose
T1 construct: (His)6; made in house; host or cells: Escherichia coli
T1 sequence (P35557 1-466 isoform P35557-2): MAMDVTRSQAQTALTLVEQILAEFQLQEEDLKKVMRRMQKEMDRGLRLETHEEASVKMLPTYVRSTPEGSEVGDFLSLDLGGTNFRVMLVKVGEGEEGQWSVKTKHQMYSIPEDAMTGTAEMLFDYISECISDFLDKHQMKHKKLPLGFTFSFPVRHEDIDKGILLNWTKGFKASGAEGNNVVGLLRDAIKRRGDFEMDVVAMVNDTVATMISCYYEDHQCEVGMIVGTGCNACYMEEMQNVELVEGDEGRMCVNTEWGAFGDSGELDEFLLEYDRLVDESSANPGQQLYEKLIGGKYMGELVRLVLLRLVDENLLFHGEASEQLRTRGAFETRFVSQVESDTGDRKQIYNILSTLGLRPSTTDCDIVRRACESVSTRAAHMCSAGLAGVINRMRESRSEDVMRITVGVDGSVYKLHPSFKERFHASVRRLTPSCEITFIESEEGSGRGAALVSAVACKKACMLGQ
Source text: (§1) An enzymatic Glucokinase (GK) assay using purified recombinant human liver/pancreas enzyme was used to evaluate the effects of potential small molecule modulators.
(§2) In this assay, GK catalyzes glucose phosphorylation in the presence of ATP. The product of this reaction, glucose-6-phosphate, was then oxidized by an excess of glucose-6-phosphate dehydrogenase to produce gluconate-6-phosphate with concomitant reduction of nicotinamide adenine dinucleotide (NAD). […] Human GK (Liver/Pancreas) was expressed in Escherichia coli as a (His) 6-tagged fusion protein and was purified by metal chelate affinity chromatography. The assay was performed in a final incubation volume of 80 μl in a 96-well clear low UV absorption plates. The incubation mixture consisted of 25 mM HEPES, 2 mM MgSO4, 1 mM dithiothreotol (DTT), 1 mg/mL bovine serum albumin (BSA), 1 mM ATP, 1 mM NAD, and 12 mM glucose, 10 units per mL glucose-6-phosphate dehydrogenase, and +/−300 ng per mL GK. For determination of the affinity (Km) and Vmax, different concentrations of glucose ranging from 0.5 mM to 40 mM were used in the assay; see Grimsby, J., Sarabu, R.; Grippo, J. F.; et. al. Science 2003, 301, 370-373. Production of reduced NAD (Nicotinamide Adenine Dinucleotide) was measured as changes in absorption at 340 nm in 96-well plate reader (Envision model # 2101 Multilabel Plate reader). % Activation @ 50 μM was calculated as the percentage increase in GK activity above the vehicle control with the effective concentration of the compound being 50 μM. EC50% (μM) was calculated as the effective concentration of the compound that produces 50% activation above the vehicle control, and EC100% (μM) was calculated as the effective concentration of the compound that produces 100% activation above the vehicle control.

[2] = target: T2, human pancreas Glucokinase (GK) (Homo sapiens, UniProt P35557); test: Glucokinase enzyme assay, pancreas GK; format: biochemical; conditions: percentage increase in GK activity above vehicle control, compound 50 μM, 12 mM glucose
T2 construct: (His)6; made in house; host or cells: Escherichia coli
T2 sequence (P35557 1-465): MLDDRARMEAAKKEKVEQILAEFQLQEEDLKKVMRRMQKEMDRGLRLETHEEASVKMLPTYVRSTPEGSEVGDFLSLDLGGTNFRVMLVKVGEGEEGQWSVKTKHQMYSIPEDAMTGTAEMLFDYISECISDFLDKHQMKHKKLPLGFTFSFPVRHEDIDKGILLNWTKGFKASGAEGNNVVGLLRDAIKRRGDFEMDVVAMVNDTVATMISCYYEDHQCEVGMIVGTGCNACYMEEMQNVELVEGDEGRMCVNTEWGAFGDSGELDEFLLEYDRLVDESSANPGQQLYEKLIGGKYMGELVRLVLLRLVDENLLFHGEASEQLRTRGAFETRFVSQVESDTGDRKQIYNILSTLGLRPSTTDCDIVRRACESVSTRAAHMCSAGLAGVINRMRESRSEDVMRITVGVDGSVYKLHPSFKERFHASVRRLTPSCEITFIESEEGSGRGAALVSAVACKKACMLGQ
Source text: as §1, §2

Structure (SMILES) | % Activation @ 50 μM [1] | % Activation @ 50 μM [2]
COC(=O)c1ccc(NC(=O)CSC2C3=C(CCCC3)C(=O)N2Cc2ccc(OC)cc2)nc1 (stereo not shown) [Compound 2] | 242.7% and 220.0% | –
COc1ccc(CN2C(=O)C3=C(CCCC3)C2SCC(=O)Nc2ccc(C(=O)O)cn2)cc1 (stereo not shown) [Compound 8, 6-{2-[2-(4-Methoxy-benzyl)-3-oxo-2,3,4,5,6,7-hexahydro-1H-isoindol-1-ylsulfanyl]-acetylamino}-nicotinic acid] | 317% and 253% | 261% and 229% and 285.8% and 320.0%
COC(=O)c1ccc(NC(=O)CSC2C3=C(CCCC3)C(=O)N2Cc2ccc(OC)c(OC)c2)nc1 (stereo not shown) [Compound 9, 6-{2-[2-(3,4-Dimethoxy-benzyl)-3-oxo-2,3,4,5,6,7-hexahydro-1H-isoindol-1-ylsulfanyl]-acetylamino}-nicotinic acid methyl ester] | 198% | 178%
COc1ccc(CN2C(=O)C3=C(CCCC3)C2SCC(=O)Nc2ccccn2)cc1OC (stereo not shown) [Compound 10, 2-[2-(3,4-Dimethoxy-benzyl)-3-oxo-2,3,4,5,6,7-hexahydro-1H-isoindol-1-ylsulfanyl]-N-pyridin-2-yl-acetamide] | – | 187% and 233%
COc1ccc(CN2C(=O)C3=C(CCCC3)C2SCC(=O)Nc2ccc(C)cn2)cc1OC (stereo not shown) [Compound 11, 2-[2-(3,4-Dimethoxy-benzyl)-3-oxo-2,3,4,5,6,7-hexahydro-1H-isoindol-1-ylsulfanyl]-N-(5-methyl-pyridin-2-yl)-acetamide] | – | 159%
COc1ccc(CN2C(=O)C3=C(CCCC3)C2SCC(=O)Nc2nccs2)cc1OC (stereo not shown) [Compound 12, 2-[2-(3,4-Dimethoxy-benzyl)-3-oxo-2,3,4,5,6,7-hexahydro-1H-isoindol-1-ylsulfanyl]-N-thiazol-2-yl-acetamide] | 181% | 149%
COc1ccc(CN2C(=O)C3=C(CCCC3)C2SCC(=O)Nc2ccc(C(N)=O)cn2)cc1OC (stereo not shown) [Compound 13, 6-{2-[2-(3,4-Dimethoxy-benzyl)-3-oxo-2,3,4,5,6,7-hexahydro-1H-isoindol-1-ylsulfanyl]-acetylamino}-nicotinamide] | – | 207.1% and 151.5%
O=C(CSC1C2=C(CCCC2)C(=O)N1Cc1ccc([N+](=O)[O-])cc1)Nc1ccccn1 (stereo not shown) [Compound 14, 2-[2-(4-Nitro-benzyl)-3-oxo-2,3,4,5,6,7-hexahydro-1H-isoindol-1-ylsulfanyl]-N-pyridin-2-yl-acetamide] | – | 77.38%
O=C(CSC1C2=C(CCCC2)C(=O)N1Cc1ccc(O)cc1)Nc1nccs1 (stereo not shown) [Compound 15, 2-[2-(4-Hydroxy-benzyl)-3-oxo-2,3,4,5,6,7-hexahydro-1H-isoindol-1-ylsulfanyl]-N-thiazol-2-yl-acetamide] | – | 106.32%
COc1ccc(CN2C(=O)C3=C(CCC3)C2SCC(=O)Nc2ccccn2)cc1 (stereo not shown) [Compound 16, 2-[2-(4-Methoxy-benzyl)-3-oxo-1,2,3,4,5,6-hexahydro-cyclopenta[c]pyrrol-1-ylsulfanyl]-N-pyridin-2-yl-acetamide] | – | 175.71%
O=C(CSC1C2=C(CCCC2)C(=O)N1Cc1cccc2ccccc12)Nc1ccccn1 (stereo not shown) [Compound 17, 2-(2-Naphthalen-1-ylmethyl-3-oxo-2,3,4,5,6,7-hexahydro-1H-isoindol-1-ylsulfanyl)-N-pyridin-2-yl-acetamide] | – | 131.4%
O=C(CSC1C2=C(CCCC2)C(=O)N1Cc1cccnc1)Nc1ccccn1 (stereo not shown) [Compound 18, 2-(3-Oxo-2-pyridin-3-ylmethyl-2,3,4,5,6,7-hexahydro-1H-isoindol-1-ylsulfanyl)-N-pyridin-2-yl-acetamide] | – | 107.1% and 156.77%
NC(=O)c1ccc(NC(=O)CSC2C3=C(CCCC3)C(=O)N2Cc2ccc(F)cc2)nc1 (stereo not shown) [Compound 20, 6-{2-[2-(4-Fluorobenzyl)-3-oxo-2,3,4,5,6,7-hexahydro-1H-isoindol-1-sulfanyl]-acetylamino}-nicotinamide] | – | 180.6% and 180.55% and 282.2%
